Measured values reported in the supplement of paper PMC11417369.
± gives the standard deviation of the averaged measurements. The list shows a part of the results.

These sequences were tested on PfAP2-I AP2 domain 3 (GST-tagged) (assay: gcPBM binding intensity (ln(normalized median fluorescence intensity)); higher = stronger DNA binding).
Method in brief: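 Each value is the highest Masliner-normalised natural-log median intensity across replicate spots of either orientation of a probe. The probes were primer-extended double-stranded 36-bp intergenic genomic sequences on an Agilent 4 × 180k array, alongside negative controls, exposed for 1 h to GST-tagged P. falciparum DNA-binding domains expressed in E. coli. Bound protein was picked up with Alexa488 anti-GST antibody and scanned at 488 nm.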
In the case of “TTTTACATATATATATGTACGAAAATGAAAAGGTCA [XGTACX_site5576]”, the “gcPBM binding intensity (ln)” value is reported as 8.43 ± 0.63. In the case of “TATTATAATTTTATATGTACACATATATAAATATAT [XGTACX_site4054]”, the “gcPBM binding intensity (ln)” value is reported as 7.61 ± 0.28. “AAAGTTACATTCGACACACACATAACAACTAAATAA [CACACA_site3419]” was tested, and the “gcPBM binding intensity (ln)” value was 7.87 ± 0.44. “TTTATTTATTAATACACACACACACCCCCACAAAAT [CACACA_site240]” was tested, and the “gcPBM binding intensity (ln)” value was 9.96 ± 0.2. “TACATAAACATTTATACACACATTAGATATACATAT [CACACA_site6329]” was tested, and the “gcPBM binding intensity (ln)” value was 7.79 ± 0.28. “CTAAATAAAGTTAACACACACATAATATTTATATGT [CACACA_site6368]” was tested, and the “gcPBM binding intensity (ln)” value was 7.65 ± 0.41. For TCAAAGAGTAGAAAGGTGCTTATGAACGAGATAATT, the “gcPBM binding intensity (ln)” value was 8.93 ± 0.35. For “TTTTTTAAAAAACAAACACACACGTAGAAAAAAAAA [CACACA_site826]”, the “gcPBM binding intensity (ln)” value was 8.29 ± 0.67. In the case of “TAATTATATGGATACACACACATACATTTACATAAC [CACACA_site5744]”, the “gcPBM binding intensity (ln)” value is reported as 8.12 ± 0.39. In the case of ACTTATTTATTTTTAGTGCATTTAGTTTTATTTTAT, the “gcPBM binding intensity (ln)” value is reported as 10.8 ± 0.26. With “TATAACTATAAAAGGAGTACTATATATATATATATA [XGTACX_site1388]” the “gcPBM binding intensity (ln)” value was 9.28 ± 0.42. With “TCTACAAAATTATCATGTACATATTATTATAATTAT [XGTACX_site6585]” the “gcPBM binding intensity (ln)” value was 7.88 ± 0.19. For “AATAGTACAAAAAAAAAAAAAAAAAAAAAAAAAAAA [CACACA_negctrl_site1376]”, the “gcPBM binding intensity (ln)” value was 8.3 ± 0.72. With “TAAAAAGAAAAAAAGAGTACAAACAAAATAATAATT [XGTACX_site6071]” the “gcPBM binding intensity (ln)” value was 8.06 ± 0.68. For “TATTTGCAATGCAAATGTACATGAATTTTTTTAATG [XGTACX_site7474]”, the “gcPBM binding intensity (ln)” value was 7.76 ± 0.33. “AGTATACACAAACACACACACACAAAAAAAAAAAAA [CACACA_site8036]” was tested, and the “gcPBM binding intensity (ln)” value was 8.01 ± 0.67. With “AAATATTTTTTAATGTGTACATAGAACATATATATA [XGTACX_site3136]” the “gcPBM binding intensity (ln)” value was 8.05 ± 0.54. In the case of “ATAATATATATATTATGTACATATAAATTTTTTTTT [XGTACX_site5826]”, the “gcPBM binding intensity (ln)” value is reported as 7.51 ± 0.36. For “TATATACCTATATATACACACAAATACATAAGCTTC [CACACA_site1369]”, the “gcPBM binding intensity (ln)” value was 7.58 ± 0.59. In the case of “TACGTTATATACAACTGTACTTGGATAATTATTAAC [XGTACX_site5614]”, the “gcPBM binding intensity (ln)” value is reported as 7.93 ± 0.3. In the case of “TACAAATTAATATGTACACACAAATATAAATATGTA [CACACA_site7016]”, the “gcPBM binding intensity (ln)” value is reported as 7.765 ± 0.064. In the case of “TTTTCTTTTTTGAACTGTACGCGTAAATTTAAAAAG [XGTACX_site882]”, the “gcPBM binding intensity (ln)” value is reported as 7.97 ± 0.2. In the case of “AAGTTTTTTTCTTTTTTTCTCTCTTTTTTTTTTTTT [XGTACX_negctrl_site613]”, the “gcPBM binding intensity (ln)” value is reported as 7.62 ± 0.7. For “GATATGATTAACTTATGTTATTCTTGATGATTACGT [CACACA_negctrl_site354]”, the “gcPBM binding intensity (ln)” value was 7.41 ± 0.59. In the case of “TTTTTTATTTATTGTTATACATCTTACTACTTATAA [GTGCAC_negctrl_site381]”, the “gcPBM binding intensity (ln)” value is reported as 7.93 ± 0.76. “AATATATTTATATATAGTACTTTTATAATATCGTTT [XGTACX_site6658]” was tested, and the “gcPBM binding intensity (ln)” value was 7.5 ± 0.42. For “AATACACATAATACATGTACTCACATTGTTATAACA [XGTACX_site4129]”, the “gcPBM binding intensity (ln)” value was 8.04 ± 0.53. For “CTTTTTTTTTTAAATAGTACTTTCTCGTATACTCAT [XGTACX_site1842]”, the “gcPBM binding intensity (ln)” value was 7.76 ± 0.78. In the case of “TGTGAAATAAAATTTATACACACTTGCTAAATGATC [CACACA_site181]”, the “gcPBM binding intensity (ln)” value is reported as 8.15 ± 0.71. For “AAGAAAAATGTGTTTTTTTTTTTTTTTTTTTTCAAT [TGCATGCA_negctrl_site404]”, the “gcPBM binding intensity (ln)” value was 7.36 ± 0.54. “TTTTTTTATTTTTGTTGTACTTATAATTCTGTAAAA [XGTACX_site7344]” was tested, and the “gcPBM binding intensity (ln)” value was 7.92 ± 0.64. “TATAAATATAAATACACACACACACGCCAAAGCGTA [CACACA_site6181]” was tested, and the “gcPBM binding intensity (ln)” value was 7.47 ± 0.4. “TAATTAAATATTTCAGTGCATTATTTTATGATCCAT [GTGCAC_site9456]” was tested, and the “gcPBM binding intensity (ln)” value was 11.2 ± 0.76. “AGATGAACTAAAAAGGTGCTAAATATGTGACCACTG [GTGCAC_site9406]” was tested, and the “gcPBM binding intensity (ln)” value was 10.7 ± 0.18. In the case of “TTTTTTTTAGTATGAACACACATATAGATTATAAAA [CACACA_site7391]”, the “gcPBM binding intensity (ln)” value is reported as 7.75 ± 0.53. In the case of “ATTTAGAATGTTCCTACACACCAAATTTAAGTGTGC [CACACA_site7161]”, the “gcPBM binding intensity (ln)” value is reported as 7.76 ± 0.69. “TACATACACAGACACACACACATATAAATATAAATA [CACACA_site7641]” was tested, and the “gcPBM binding intensity (ln)” value was 7.83 ± 0.33. “ATAAGAAGAAGAAAAACACACATATGTAAATATATA [CACACA_site3138]” was tested, and the “gcPBM binding intensity (ln)” value was 7.47 ± 0.8. For “ATATTATAGATATACACACACACATGCATGCACATA [CACACA_site6203]”, the “gcPBM binding intensity (ln)” value was 9.01 ± 0.42. For “TATATATCTTTATGCACACACAAAGAAAATTTTCCT [CACACA_site7366]”, the “gcPBM binding intensity (ln)” value was 10.4 ± 0.55. With “ATTAATTTAATTTGAATTATTTTATTATATTATTAT [XGTACX_negctrl_site10]” the “gcPBM binding intensity (ln)” value was 7.31 ± 0.42. In the case of GTTTGAATATATCAGGTGCATTTATAATTCATATGA, the “gcPBM binding intensity (ln)” value is reported as 10.7 ± 0.35. For “TTATTATTAAAACACACACACAAAAAAAAAAAAAAA [CACACA_site1480]”, the “gcPBM binding intensity (ln)” value was 8.15 ± 0.69. In the case of “AAAAAAAAAAAAAAAACACACATGTATAATATAATA [CACACA_site2209]”, the “gcPBM binding intensity (ln)” value is reported as 8.65 ± 0.59. For “TACACCTGCACGATTGCACACAAATATGTTTTGAAG [CACACA_site8656]”, the “gcPBM binding intensity (ln)” value was 9.48 ± 0.36.
